From ChEMBL document CHEMBL1201862, “PubChem BioAssay data set” (2004)
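Values below derive from 48-hour exposures of cells grown in 96-well plates, with endpoints linearly interpolated between the two concentrations bracketing the appropriate inhibition level. GI50 = concentration required for 50% inhibition of growth.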 Calls of active or inactive are those of the source. Rule as the data show it: active = GI50 up to about 1.1 µM and inactive = higher.

These molecules were tested on NCI-H322M (assay: growth of human tumour cells (NCI), 48 h).

Q: `O=C1OC(c2ccc(O)c(-c3ccccc3)c2)(c2ccc(O)c(-c3ccccc3)c2)c2c(Cl)c(Cl)c(Cl)c(Cl)c21` was tested. Which GI50 did it give?
A: Its GI50 is inactive: > 100 µM.

Q: `CCCCCCCCCCCC(=O)c1c(O)cccc1O` was tested. Which GI50 did it give?
A: The GI50 was inactive: 19.2 µM.

Q: How did the GI50 turn out when `O=C(/C=C/c1ccc2c(c1)OCO2)NCc1ccco1` was run?
A: Its GI50 is inactive: > 100 µM.

Q: For `O=C(O)CCC(=O)c1ccc(Cl)cc1`, which GI50 is on record?
A: Its GI50 is inactive: > 100 µM.

Q: `CCOC1OCCCC1Br` (stereo not given) was tested. Which GI50 did it give?
A: Its GI50 is inactive: > 100 µM.

Q: How did the GI50 turn out when `Cc1c(C(=O)Nc2ccc(Cl)c(C(F)(F)F)c2)oc2cc(O)ccc2/c1=N\NC(N)=S` was run?
A: Its GI50 is inactive: > 100 µM.

Q: How did the GI50 turn out when `CC(=O)c1sc(-c2nc(C)c(C(=O)/C=C\c3ccc(/C=C\C(=O)c4sc(-c5nc(C)c(C(C)=O)s5)nc4C)cc3)s2)nc1C` was run?
A: The GI50 was inactive: > 100 µM.

Q: Which GI50 does the source give for `NC1CNC(=O)c2c(Cl)sc(Cl)c21` (stereo not given) here?
A: Its GI50 is inactive: > 100 µM.

Q: How did the GI50 turn out when `COc1ccc(C2C(C=O)C(N3CCN(C)CC3)=Nc3nc4ccccc4n32)cc1` (stereo not given) was run?
A: The GI50 was inactive: 15.1 µM.

Q: How did the GI50 turn out when `NC(=O)C(C(N)=O)=C(O)/C(O)=C/C(=O)c1ccccc1` was run?
A: Its GI50 is inactive: > 100 µM.

Q: `COCOc1cc(OC)ccc1C/C=N/O` was tested. Which GI50 did it give?
A: The GI50 was inactive: > 100 µM.

Q: For `NC(=S)C1=C(N)Oc2c(c(=O)oc3ccccc23)C1c1ccc(Br)cc1` (stereo not given), which GI50 is on record?
A: The GI50 was inactive: > 100 µM.

Q: How did the GI50 turn out when `Cc1cc(N)ccc1C=O` was run?
A: Its GI50 is inactive: > 100 µM.

Q: `C=C1c2nc3ccccc3n2C=C(c2ccc(C)cc2)N1c1ccc(OC)cc1` was tested. Which GI50 did it give?
A: Its GI50 is inactive: > 100 µM.

Q: With `CCOC(=O)C1=C(C)CC2C(=O)OC(=O)C2C1(C)C` (stereo not given) as the molecule, how does the GI50 read?
A: The GI50 was inactive: > 100 µM.

Q: For `CCOC(OC1=C(C#N)CCCC1)C(CC)[Se]c1ccccc1` (stereo not given), which GI50 is on record?
A: Its GI50 is inactive: > 100 µM.

Q: How did the GI50 turn out when `CCCCCCCC(=O)N/N=C/c1ccc(Sc2nccn2C)c([N+](=O)[O-])c1` was run?
A: Its GI50 is inactive: 27.5 µM.

Q: `CS/C(=N\c1ccc([N+](=O)[O-])cc1C#N)NC(=O)c1ccccc1` was tested. Which GI50 did it give?
A: The GI50 was inactive: > 100 µM.

Q: Which GI50 does the source give for `CCCCCC(O)C(O)CCC[C@H](O)[C@H]1CC[C@H]([C@H]2CC[C@H]([C@H](O)CCCCCCCCCCCCC3=C[C@H](C)OC3=O)O2)O1` (stereo not given in full) here?
A: The GI50 was inactive: 4.61 µM.

Q: With `O=C(c1cccs1)N(Cc1cccnc1)C(=S)N(Cc1cccnc1)C(=O)c1cccs1` as the molecule, how does the GI50 read?
A: The GI50 was inactive: 90.6 µM.

Q: Which GI50 does the source give for `COc1ccccc1/C=C1\CCC(CNc2ccc(Cl)cc2)C1=O` (stereo not given) here?
A: Its GI50 is inactive: 13.4 µM.

Q: With `C/C(=C\COP(=O)(O)OP(=O)(O)O)CC/C=C(\C)CNc1ccccc1` as the molecule, how does the GI50 read?
A: The GI50 was inactive: 9.04 µM.

Q: For `Clc1cc(Cl)cc(/N=C/C=C/Nc2cc(Cl)cc(Cl)c2)c1`, which GI50 is on record?
A: Its GI50 is inactive: 23.2 µM.

Q: Which GI50 does the source give for `O=C(c1cscc1CCc1ccccc1)c1cscc1CCc1ccccc1` here?
A: Its GI50 is inactive: > 100 µM.

Q: For `CN1C(=O)CC(=O)N1/C(=C/c1ccccc1)c1ccccc1`, which GI50 is on record?
A: The GI50 was inactive: > 100 µM.

Q: Which GI50 does the source give for `O=C1N(CN2CCOCC2)CN(CN2CCOCC2)C(=O)N1Cc1ccc(-c2ccc(CN3C(=O)N(CN4CCOCC4)CN(CN4CCOCC4)C3=O)cc2)cc1` here?
A: Its GI50 is inactive: 16.3 µM.

Q: How did the GI50 turn out when `O=C1C=C[C@@H](COC2OC(CO)C(O)C(O)C2O)O1` (stereo not given in full) was run?
A: The GI50 was inactive: 15.3 µM.

Q: For `CS/C(C#N)=C(\C#N)SC`, which GI50 is on record?
A: The GI50 was inactive: 24.1 µM.

Q: `NCC(=O)C(O)C(O)C(O)CO` (stereo not given) was tested. Which GI50 did it give?
A: The GI50 was inactive: > 100 µM.

Q: `CCOP(=O)(OCC)C(C)(CC)NC(=O)C(C(F)(F)F)C(F)(F)F` (stereo not given) was tested. Which GI50 did it give?
A: Its GI50 is inactive: > 100 µM.

Q: For `NC1=Nc2cc(C(F)(F)F)ccc2Sc2nc3ccccc3n21`, which GI50 is on record?
A: The GI50 was inactive: > 76.6 µM.

Q: How did the GI50 turn out when `CN(C)c1ccc(/C=C(\NC(=O)c2ccccc2)C(=O)Nc2ccccc2C(=O)NCc2ccccc2)cc1` was run?
A: Its GI50 is inactive: > 100 µM.

Q: With `C[N+](C)(C)CC1CCC/C1=N\OC(=O)c1ccccc1` (stereo not given) as the molecule, how does the GI50 read?
A: Its GI50 is inactive: > 100 µM.

Q: `CCNC(=O)C1CCCN1C(=O)C(CCCN=C(N)N)NC(=O)C(CC(C)C)NC(=O)C(Cc1c[nH]c2ccccc12)NC(=O)C(Cc1ccc(O)cc1)NC(=O)C(CO)NC(=O)C(Cc1c[nH]c2ccccc12)NC(=O)C(Cc1c[nH]cn1)NC(=O)C1CCC(=O)N1` (stereo not given) was tested. Which GI50 did it give?
A: Its GI50 is inactive: > 100 µM.

Q: With `Cc1[nH]c2ncn3[nH]c(=S)nc3c2c1Cc1ccccc1` as the molecule, how does the GI50 read?
A: Its GI50 is inactive: > 100 µM.

Q: With `O=C(COC(c1ccc(F)cc1)c1ccc(F)cc1)N1CCN(CCCc2ccccc2)CC1` as the molecule, how does the GI50 read?
A: The GI50 was inactive: 4.36 µM.

Q: How did the GI50 turn out when `O=c1[nH]nc(Cc2ccccc2)n1/N=C/c1c(O)ccc2ccccc12` was run?
A: The GI50 was inactive: 24.2 µM.

Q: `OC(c1ccccc1)C1CC2C=CC1C2` (stereo not given) was tested. Which GI50 did it give?
A: Its GI50 is inactive: > 100 µM.

Q: `Cc1nnc2c3nnc(C)n3c3ccccc3n12` was tested. Which GI50 did it give?
A: The GI50 was inactive: > 100 µM.

Q: Which GI50 does the source give for `Nc1nc(NCC2(CO)CC(CCc3ccccc3)C2)cc(=O)[nH]1` (stereo not given) here?
A: The GI50 was inactive: > 100 µM.

Q: How did the GI50 turn out when `CCN1CCN(c2nc3ccccc3nc2C(=O)c2ccc(OC)cc2)CC1` was run?
A: The GI50 was inactive: 40.9 µM.

Q: For `O=C(C=P(c1ccccc1)(c1ccccc1)c1ccccc1)c1ccc(-c2ccc(F)cc2F)cc1`, which GI50 is on record?
A: The GI50 was inactive: 2.52 µM.

Q: How did the GI50 turn out when `COc1cc([C@@H]2c3cc4c(cc3[C@@H](NC(=O)c3cccc(F)c3)C3COC(=O)[C@@H]32)OCO4)cc(OC)c1O` (stereo not given in full) was run?
A: Its GI50 is inactive: 7.91 µM.

Q: How did the GI50 turn out when `COC(=O)[C@H]1C=C[C@@H](C)n2c(=O)c3ccccc3c(=O)n21` was run?
A: The GI50 was inactive: > 100 µM.

Q: For `C/C(=N/NC(=S)N1CCN(C(=S)N/N=C(/C)c2ccccn2)CC1)c1ccccn1`, which GI50 is on record?
A: Its GI50 is inactive: 18.3 µM.

Q: For `CC(=O)c1c(SCCN2CCCC2)n(-c2ccccc2)c(=S)n(-c2ccccc2)c1=O`, which GI50 is on record?
A: Its GI50 is inactive: 21.5 µM.

Q: Which GI50 does the source give for `Nc1cccc(Nc2nc3ccccc3nc2NS(=O)(=O)c2ccccc2)c1` here?
A: The GI50 was inactive: 30.3 µM.

Q: Which GI50 does the source give for `[O-]c1c2cc(-[n+]3c(-c4ccccc4)cc(-c4ccccc4)cc3-c3ccccc3)cc1CO[C@@H](c1ccccc1)[C@H](c1ccccc1)OCCOCCO[C@@H](c1ccccc1)[C@H](c1ccccc1)OC2` here?
A: The GI50 was active: 0.363 µM.

Q: With `Cc1ccc(/C=N/n2c(=O)[nH]c3ccccc3c2=O)cc1` as the molecule, how does the GI50 read?
A: The GI50 was inactive: > 100 µM.

Q: Which GI50 does the source give for `Sc1nnc(CCCCCCCCc2nnc(S)o2)o1` here?
A: The GI50 was inactive: > 100 µM.

Q: With `COc1ccc(N[S+]([O-])c2cccc(C)c2)cc1` (stereo not given) as the molecule, how does the GI50 read?
A: The GI50 was inactive: 75.9 µM.

Q: Which GI50 does the source give for `CCOC(=O)c1cc2c3c(c(C(C)=O)c(O)c2[nH]1)N(CC(C)CC)CC3` (stereo not given) here?
A: Its GI50 is inactive: > 100 µM.

Q: `COc1ccc2c(c1)CC[C@@H]1C2CC[C@]2(C)C(=O)N(CCN3CCCCC3)C(=O)CC12` (stereo not given in full) was tested. Which GI50 did it give?
A: The GI50 was inactive: 71.6 µM.

Q: Which GI50 does the source give for `COC(=O)/C(C)=C/[N+](=O)[O-]` here?
A: The GI50 was inactive: 20.3 µM.

Q: `O=c1cc(NNc2cccc3ccccc23)[nH]c(=O)[nH]1` was tested. Which GI50 did it give?
A: The GI50 was inactive: 16.5 µM.

Q: Which GI50 does the source give for `Cc1ccc(C)c2c1NC(=O)/C2=N\Nc1ccccc1[N+](=O)[O-]` here?
A: The GI50 was inactive: > 100 µM.

Q: For `O=C(CCCCCCCCC(=O)N1C(=O)CC(=O)N(c2ccccc2)C1=S)N1C(=O)CC(=O)N(c2ccccc2)C1=S`, which GI50 is on record?
A: Its GI50 is inactive: > 100 µM.

Q: Which GI50 does the source give for `COc1ccc2c(C(=O)O)cc3cc(OC)c(OC)cc3c2c1` here?
A: Its GI50 is inactive: > 100 µM.

Q: `C/C(=N\NC(=S)N(C)C)c1ccccn1` was tested. Which GI50 did it give?
A: Its GI50 is active: 0.00272 µM.

Q: How did the GI50 turn out when `Nc1ncnc2c1ncn2C1OC(CO)C(O)C(O)C1O` (stereo not given) was run?
A: The GI50 was inactive: > 100 µM.

Q: `CCc1nc(N)nc(N)c1-c1ccc(N2CCNCC2)cc1` was tested. Which GI50 did it give?
A: Its GI50 is inactive: > 92.9 µM.

Q: How did the GI50 turn out when `O=C(Cc1nc2ccccc2c(=O)n1-c1c(Cl)cccc1Cl)c1ccncc1` was run?
A: The GI50 was inactive: 26.3 µM.

Q: `Cc1c(C(=O)/C=C/c2ccccc2)[n+]([O-])c2ccccc2[n+]1[O-]` was tested. Which GI50 did it give?
A: The GI50 was inactive: 17.3 µM.

Q: Which GI50 does the source give for `COc1ccc2c(c1O)-c1c(OC)c(OC)cc3c1[C@H](C2)[N+](C)(C)CC3` here?
A: Its GI50 is inactive: > 100 µM.

Q: Which GI50 does the source give for `CN(C)CCNC(=O)c1cccc2c1nc(-c1ccccn1)c1ccccc12` here?
A: The GI50 was inactive: 16 µM.
